Laboratory results reported in publication PMC4336329 (PLoS ONE, 2015).
Screen size: about 310,000 compounds; about 14,000 (4.5%) showed an effect of 50% or more. Effects have a minus sign here. The list shows a part of the results.

Each molecule was assayed against human ether-à-go-go-related gene (hERG) potassium channel (human, UniProt Q12809) (assay: primary screen, population patch clamp on CHO cells stably expressing hERG).
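Further: peak tail current of the secondary pulse compared with the same well before compound.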

Sequence of human ether-à-go-go-related gene (hERG) potassium channel (Q12809 whole entry, looked up): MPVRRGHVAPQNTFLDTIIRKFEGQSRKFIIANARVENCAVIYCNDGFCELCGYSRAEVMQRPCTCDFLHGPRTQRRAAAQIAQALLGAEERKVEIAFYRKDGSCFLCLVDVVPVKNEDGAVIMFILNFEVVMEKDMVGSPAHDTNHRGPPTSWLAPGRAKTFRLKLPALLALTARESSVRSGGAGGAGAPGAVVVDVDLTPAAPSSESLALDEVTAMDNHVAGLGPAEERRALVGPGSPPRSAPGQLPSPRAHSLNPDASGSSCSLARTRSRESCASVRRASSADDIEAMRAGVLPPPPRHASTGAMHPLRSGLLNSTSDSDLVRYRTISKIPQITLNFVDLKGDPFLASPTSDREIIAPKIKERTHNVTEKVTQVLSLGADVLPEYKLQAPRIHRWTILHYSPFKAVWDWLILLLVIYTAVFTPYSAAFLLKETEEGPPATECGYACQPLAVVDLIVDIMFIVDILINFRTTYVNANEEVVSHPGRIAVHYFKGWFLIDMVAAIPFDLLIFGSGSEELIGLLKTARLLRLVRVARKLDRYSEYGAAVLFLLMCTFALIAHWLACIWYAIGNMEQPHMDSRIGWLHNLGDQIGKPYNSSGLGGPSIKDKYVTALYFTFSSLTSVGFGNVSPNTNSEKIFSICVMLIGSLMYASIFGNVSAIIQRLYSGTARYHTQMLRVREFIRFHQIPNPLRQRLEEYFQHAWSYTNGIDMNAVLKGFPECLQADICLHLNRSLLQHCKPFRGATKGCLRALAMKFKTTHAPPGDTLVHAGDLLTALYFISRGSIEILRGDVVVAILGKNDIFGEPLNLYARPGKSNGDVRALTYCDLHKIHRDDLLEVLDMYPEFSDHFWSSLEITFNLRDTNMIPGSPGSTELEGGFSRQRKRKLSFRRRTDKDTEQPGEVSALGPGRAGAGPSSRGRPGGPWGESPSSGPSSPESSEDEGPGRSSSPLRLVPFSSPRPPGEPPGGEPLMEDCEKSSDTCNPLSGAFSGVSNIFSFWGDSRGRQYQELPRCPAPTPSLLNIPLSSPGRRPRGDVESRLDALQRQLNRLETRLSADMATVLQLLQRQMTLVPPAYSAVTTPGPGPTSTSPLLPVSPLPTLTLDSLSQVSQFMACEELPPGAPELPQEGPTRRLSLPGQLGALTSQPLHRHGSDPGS

Structure (SMILES) | hERG current change (%, negative = inhibition) at 10uM [%]
O=C(O)c1cc(-c2ccccc2)n(-c2ccc(F)cc2)n1 | 27.8
COc1cc(-c2nc(C(=O)NC3CCCCC3)cc3c2[nH]c2ccccc23)cc(OC)c1OC | -8.67
COC(=O)c1cc(NC(=O)CN2C(=O)CSC2=O)ccc1Cl | -9.64
CCCCC(CC)C(=O)NCC(C)NC(=O)C(CC)CCCC (stereo not drawn) | 0.945
CC1=Nc2cccc3cccc(c23)N1 | 2.88
Cc1nc2ccc(S(=O)(=O)Nc3cc(-c4nc5cccnc5s4)ccc3C)cc2s1 | -15.8
O=C(Cc1cnc2ncnn2c1)N1CCc2c([nH]c3ccccc23)C1c1ccccc1F (stereo not drawn) | -39.8
COc1ccc(-c2cc3c(=O)n(CC(=O)NCCCN4CCC(N5CCCCC5)CC4)ncn3n2)cc1 | 21.5
Cc1ccc2ncnc(Nc3ccc(C)c(C)c3)c2c1 | -1.72
CCn1cc(C(=O)O)c(=O)c2cc(S(=O)(=O)N(C)C)ccc21 | -5.47
COCC1CCN(Cc2cn[nH]c2-c2ccc(OC)cc2F)C1 (stereo not drawn) | -12.5
CN(Cc1cn[nH]c1-c1ccc2c(c1)OCO2)C1CCOCC1 | 12.7
Cc1ccc(C(=O)CCC(=O)Nc2ccc(Cl)c(S(=O)(=O)Nc3cccc(Cl)c3)c2)cc1 | -12.1
CCc1nc2ccc(C)cc2c(C(=O)NC2CCCCC2C)c1C (stereo not drawn) | -24
CCN(CC)S(=O)(=O)c1cccc(C(=O)OCC(=O)C23CC4CC(CC(C4)C2)C3)c1 | -0.873
CC(=O)Nc1ccc(C(=O)Nc2cccc(S(=O)(=O)N(C)c3ccccc3)c2)cc1 | 2.08
CS(=O)(=O)Cc1cccc(C(=O)NC2CCSc3ccccc32)c1 (stereo not drawn) | 14.2
CCN1CCCC1CN(Cc1cc2ccc(C)cc2[nH]c1=O)C(=S)Nc1ccccc1OC (stereo not drawn) | 46.7
NC(=O)CN1CCCN(S(=O)(=O)c2ccc(Br)cc2)CC1 | -18

Structure (SMILES) | hERG current change (%, negative = inhibition) at 10uM [%]
COc1ccccc1OCC(=O)OCn1c(SC)nnc(C)c1=O | 25.1
O=C(NCc1nc2ccccc2[nH]1)C1=C[C@@H](C2CCCCC2)C[C@@H](OCCCCO)O1 | -3.98
O=C(Nc1cc2c3c(c1)CC(=O)N3CCC2)C1CCCCC1 | -5.43
O=C(NCS(=O)(=O)c1ccccc1)c1ccccc1 | -0.415
CC(C)(C)n1ncc2c(=O)n(CC(=O)Nc3ccc4c(c3)OCO4)cnc21 | 7.05
CC(=O)N1N=C(c2ccc(C)cc2)OC1c1cccnc1 (stereo not drawn) | 8.57
COc1ccc(CC(=O)N2CCc3ccccc3C2)cc1 | 3.67
Nc1ccc(C(=O)Nc2cccc(N)c2)cc1 | 22.1
c1cc2c(cc1Cn1cnnn1)OCO2 | 8.76
Cc1sc2nc(SCC(=O)Nc3ccccc3F)[nH]c(=O)c2c1C | 18.8
CCN1CCN(Cc2ccc(C)cc2C)CC1 | 3.19
CCCn1c(N2CCN(CC(=O)Nc3ccc4c(c3)OCCO4)CC2)nc2ccccc21.Cl | -60.4
Cc1ccn2c(=O)c(NC(=O)c3ccc(Br)o3)c(C)nc2c1 | 8.18
Cc1cc(NC(=O)Nc2ccc3c(ccn3C)c2)sn1 | 11.2
COc1cccc(NC(=O)C2C3C=CC(O3)C2C(=O)NCc2cccnc2)c1 (stereo not drawn) | -5.43
COc1cc(/C=C/C(=O)OCC(=O)N2CCCC2)cc(OC)c1OC | 15.8
COc1cccc(NC(=O)c2c(C)nn(-c3ccccc3)c2Cl)c1 | 11.9
C/C=C(/C)C(=O)O[C@@H]1c2c(ccc3ccc(=O)oc23)O[C@@H]1C(C)(C)OC(=O)/C(C)=C\C | -0.936
CC1(C)Cc2cccc(OCC(=O)N3CCN(c4ccccc4)CC3)c2O1 | -45.6

Structure (SMILES) | hERG current change (%, negative = inhibition) at 10uM [%]
COc1ccc(/C=N/NC(=O)c2cc[n+]([O-])cc2)cc1OC | 29.1
O=C(N/N=C/c1ccc(Cl)cc1)c1sccc1OCc1ccc(F)cc1 | 16.7
CCC1CCCCN1CCNC(=O)CCS(=O)(=O)c1ccc(Br)cc1 (stereo not drawn) | -19.6
CSc1ncccc1C(=O)Nc1cc(C)ccn1 | 6.19
CC(CCc1ccccc1)NC(=O)[C@@H]1Cc2ccccc2CN1.Cl (stereo partly drawn) | -32.3
O=C(NCc1cccc(CNC(=O)Nc2cccc(O)c2)c1)Nc1cccc(O)c1 | 15.3
c1ccc(Cn2c3ccccc3c3nnc(SCCN4CCCCC4)nc32)cc1 | -67.7
Brc1ccc2nc(-c3c[nH]c4ccccc34)cn2c1 | 18
Cc1cc(NC(=O)Nc2ccccc2[N+](=O)[O-])n(C)n1 | 16.7
N#Cc1ccc(-c2ccc(F)cc2)nc1Sc1ccc(F)cc1 | -3.46
O=C(CN1CCOCC1)N/N=C/c1ccccc1 | -14.4
CCN(c1ccccc1)S(=O)(=O)c1cccc(C(=O)NCc2cccnc2)c1 | -8.07
CC(=O)N(C)c1cccc([N+](=O)[O-])c1 | 7.09
CCC(C)[C@H]1CNC(=S)N1CCc1cc(C(F)(F)F)cc(C(F)(F)F)c1 (stereo partly drawn) | 11.8
CC(C)Sc1nc2ccccc2n1CC(=O)NCc1ccc2c(c1)OCO2 | -7.23
CCOC(=O)N1CCN(C(=O)CN(C2CCCCC2)S(=O)(=O)c2ccc(Cl)cc2)CC1 | -47.8
COc1cc(NC(=S)N2CCC(C(O)(c3ccccc3)c3ccccc3)CC2)cc(OC)c1 | -8.09
Nc1nc(SCC(=O)N2CCOCC2)n[nH]1 | 13.7
COc1ccc(CCNC(=O)C2CCN(Cc3nc(-c4ccccc4F)oc3C)CC2)cc1OC | -45.4
